Laboratory results reported in patent US11618753B2 (priority 2018, dated 2023).
Counter-ions that a name gives are not always drawn.

Tested on: MLKL phosphorylation, HT29-L23 human colorectal adenocarcinoma cells
Assay: cells
Details: read-out: pMLKL HCS Cell Assay (IC50, uM)

Row | Compound | IC50
1 | Nc1ncnn2c(-c3ccc(OC(F)(F)F)c(C(=O)N[C@@H]4CN(C(=O)C5CC(F)(F)C5)C[C@@H]4F)c3)cc(C(F)(F)F)c12 [Example 1054, 5-[4-amino-5-(trifluoromethyl)pyrrolo[2,1-f][1,2,4]triazin-7-yl]-N-[(3R,4S)-1-(3,3-difluorocyclobutanecarbonyl)-4-fluoropyrrolidin-3-yl]-2-(trifluoromethoxy)benzamide] | 0.083 µM
2 | COc1ncc(-c2cc(C(F)(F)F)c3c(N)ncnn23)cc1C(=O)N[C@@H]1CN(C(=O)CC(C)(O)C(F)(F)F)C[C@@H]1F (stereo partly drawn) [Example 1224, 5-[4-amino-5-(trifluoromethyl)pyrrolo[2,1-f][1,2,4]triazin-7-yl]-N-[(3R,4S)-4-fluoro-1-(4,4,4-trifluoro-3-hydroxy-3-methylbutanoyl)pyrrolidin-3-yl]-2-methoxypyridine-3-carboxamide] | 0.0091 µM
3 | Cc1ccc(-c2cc(C(F)(F)F)c3c(N)ncnn23)cc1C(=O)Nc1ccn(Cc2ccc(F)cc2)n1 [Example 1811, 5-(4-amino-5-(trifluoromethyl)pyrrolo[2,1-f][1,2,4]triazin-7-yl)-N-(1-(4-fluorobenzyl)-1H-pyrazol-3-yl)-2-methylbenzamide] | 0.0032 µM
4 | Cc1cc(F)c(-c2cc(C(F)(F)F)c3c(N)ncnn23)cc1C(=O)N[C@@H]1CN(C(=O)C2CCC(F)(F)C2)C[C@@H]1F (stereo partly drawn) [Example 417, 5-[4-amino-5-(trifluoromethyl)pyrrolo[2,1-f][1,2,4]triazin-7-yl]-N-[(3R,4S)-1-(3,3-difluorocyclo-pentanecarbonyl)-4-fluoropyrrolidin-3-yl]-4-fluoro-2-methylbenzamide, TFA] | 0.0079 µM
5 | Cc1ncc(-c2cc(C(F)(F)F)c3c(N)ncnn23)cc1C(=O)N1CCCC(C)(C(O)c2ccc(F)cc2)C1 (stereo not shown) [Example 1740, (5-(4-amino-5-(trifluoromethyl)pyrrolo[2,1-f][1,2,4]triazin-7-yl)-2-methylpyridin-3-yl)(3-((4-fluorophenyl)(hydroxy)methyl)-3-methylpiperidin-1-yl)methanone] | 0.033 µM
6 | COc1ncc(-c2cc(CN3CCC(F)(F)CC3)c3c(N)ncnn23)cc1C(=O)N[C@@H]1CN(C(=O)OC2CC(F)(F)C2(F)F)C[C@@H]1F (stereo partly drawn) [Example 1532, 2,2,3,3-tetrafluorocyclobutyl (3R,4S)-3-(5-{4-amino-5-[(4,4-difluoropiperidin-1-yl)methyl]pyrrolo[2,1-f][1,2,4]triazin-7-yl}-2-methoxypyridine-3-amido)-4-fluoropyrrolidine-1-carboxylate] | 0.0021 µM
7 | COc1ncc(-c2cc(C(F)(F)F)c3c(N)ncnn23)cc1C(=O)N[C@@H]1CN(S(=O)(=O)Cc2cc(F)ccc2F)C[C@@H]1F [Example 1489, 5-[4-amino-5-(trifluoromethyl)pyrrolo[2,1-f][1,2,4]triazin-7-yl]-N-[(3R,4S)-1-[(2,5-difluorophenyl)methanesulfonyl]-4-fluoropyrrolidin-3-yl]-2-methoxypyridine-3-carboxamide] | 0.022 µM
8 | Cc1ccc(-c2cc(CN3CCC(F)(F)CC3)c3c(N)ncnn23)cc1C(=O)N[C@@H]1CN(C(=O)C2CC(F)(F)C2)C[C@@H]1F [Example 1641, 5-{4-amino-5-[(4,4-difluoropiperidin-1-yl)methyl]pyrrolo[2,1-f][1,2,4]triazin-7-yl}-N-[(3R,4S)-1-(3,3-difluorocyclobutanecarbonyl)-4-fluoropyrrolidin-3-yl]-2-methylbenzamide] | 0.00043 µM
9 | CCc1ccc(-c2cc(C(F)(F)F)c3c(N)ncnn23)cc1C(=O)N[C@@H]1CN(C(=O)C(C)C(F)(F)F)C[C@@H]1F (stereo partly drawn) [Example 977, 5-[4-amino-5-(trifluoromethyl)pyrrolo[2,1-f][1,2,4]triazin-7-yl]-2-ethyl-N-[(3R,4S)-4-fluoro-1-(3,3,3-trifluoro-2-methylpropanoyl)pyrrolidin-3-yl]benzamide] | 0.01 µM
10 | COc1ncc(-c2cc(C(F)(F)F)c3c(N)ncnn23)cc1C(=O)NC1CN(C(=O)C2CC2(F)F)CCC1F (stereo not shown) [Example 1579, 5-[4-amino-5-(trifluoromethyl)pyrrolo[2,1-f][1,2,4]triazin-7-yl]-N-[1-(2,2-difluorocyclopropanecarbonyl)-4-fluoropiperidin-3-yl]-2-methoxypyridine-3-carboxamide] | 0.233 µM
11 | Cc1ccc(-c2cc(CN3CCC(C(F)(F)F)CC3)c3c(N)ncnn23)cc1C(=O)N[C@@H]1CN(C(=O)C(C)(C)C(F)(F)F)C[C@@H]1F [Example 1652, 5-(4-amino-5-{[4-(trifluoromethyl)piperidin-1-yl]methyl}pyrrolo[2,1-f][1,2,4]triazin-7-yl)-N-[(3R,4S)-4-fluoro-1-(3,3,3-trifluoro-2,2-dimethylpropanoyl)pyrrolidin-3-yl]-2-methylbenzamide] | 0.00077 µM
12 | Cc1cc(F)c(-c2cc(C(F)(F)F)c3c(N)ncnn23)cc1C(=O)N[C@@H]1CN(C(=O)c2ccc(F)c(Br)n2)C[C@@H]1F [Example 847, 5-[4-amino-5-(trifluoromethyl)pyrrolo[2,1-f][1,2,4]triazin-7-yl]-N-[(3R,4S)-1-(6-bromo-5-fluoropyridine-2-carbonyl)-4-fluoropyrrolidin-3-yl]-4-fluoro-2-methylbenzamide] | 0.016 µM
13 | Nc1ncnn2c(-c3ccc(Cl)c(C(=O)N[C@@H]4CN(C(=O)C5(F)CC5)C[C@@H]4F)c3)cc(CN3CCC(C(F)(F)F)CC3)c12 [Example 1149, 5-(4-amino-5-{[4-(trifluoromethyl)piperidin-1-yl]methyl}pyrrolo[2,1-f][1,2,4]triazin-7-yl)-2-chloro-N-[(3R,4S)-4-fluoro-1-(1-fluorocyclopropanecarbonyl)pyrrolidin-3-yl]benzamide] | 0.0026 µM
14 | COc1ncc(-c2cc(CN3CCC(F)(F)CC3)c3c(N)ncnn23)cc1C(=O)N[C@@H]1CN(C(=O)CC(F)(F)F)C[C@@H]1F [Example 1261, 5-{4-amino-5-[(4,4-difluoropiperidin-1-yl)methyl]pyrrolo[2,1-f][1,2,4]triazin-7-yl}-N-[(3R,4S)-4-fluoro-1-(3,3,3-trifluoropropanoyl)pyrrolidin-3-yl]-2-methoxypyridine-3-carboxamide] | 0.0028 µM
15 | Nc1ncnn2c(-c3cc(C(=O)N[C@@H]4CN(C(=O)CC(F)(F)F)C[C@@H]4F)c(F)cc3F)cc(C(F)(F)F)c12 [Example 775, 5-[4-amino-5-(trifluoromethyl)pyrrolo[2,1-f][1,2,4]triazin-7-yl]-2,4-difluoro-N-[(3R,4S)-4-fluoro-1-(3,3,3-trifluoropropanoyl)pyrrolidin-3-yl]benzamide] | 0.074 µM
16 | Nc1ncnn2c(-c3cc(F)cc(C(=O)N[C@@H]4CN(C(=O)c5ccc(F)cc5)C[C@@H]4F)c3)cc(C(F)(F)F)c12 [Example 606, 3-[4-amino-5-(trifluoromethyl)pyrrolo[2,1-f][1,2,4]triazin-7-yl]-5-fluoro-N-[(3R,4S)-4-fluoro-1-(4-fluorobenzoyl)pyrrolidin-3-yl]benzamide] | 0.022 µM
17 | CC(CC(=O)N1C[C@H](F)[C@H](NC(=O)c2cc(-c3cc(C(F)(F)F)c4c(N)ncnn34)cc(F)c2CF)C1)C(F)(F)F (stereo partly drawn) [Example 620, 5-[4-amino-5-(trifluoromethyl)pyrrolo[2,1-f][1,2,4]triazin-7-yl]-3-fluoro-N-[(3R,4S)-4-fluoro-1-(4,4,4-trifluoro-3-methylbutanoyl)pyrrolidin-3-yl]-2-(fluoromethyl)benzamide] | 0.0018 µM
18 | COc1ncc(-c2cc(C(F)(F)F)c3c(N)ncnn23)cc1C(=O)N[C@@H]1CN(C(=O)C2(C(F)(F)F)CCCCC2)C[C@@H]1F [Example 312, 5-[4-amino-5-(trifluoromethyl)pyrrolo[2,1-f][1,2,4]triazin-7-yl]-N-[(3R,4S)-4-fluoro-1-[1-(trifluoro-methyl)cyclohexanecarbonyl]pyrrolidin-3-yl]-2-methoxypyridine-3-carboxamide, TFA] | 0.017 µM
19 | COc1ccc(-c2cc(C(F)(F)F)c3c(N)ncnn23)cc1C(=O)N[C@@H]1CN(C(=O)c2ccccc2F)C[C@@H]1F [Example 1124, 5-[4-amino-5-(trifluoromethyl)pyrrolo[2,1-f][1,2,4]triazin-7-yl]-N-[(3R,4S)-4-fluoro-1-(2-fluorobenzoyl)pyrrolidin-3-yl]-2-methoxybenzamide] | 0.0055 µM
20 | COCCNc1ncnn2c(-c3cnc(OC)c(C(=O)Nc4cnn(Cc5ccccc5)c4)c3)ccc12 [Example 56, N-(1-benzyl-1H-pyrazol-4-yl)-2-methoxy-5-(4-((2-methoxyethyl)amino)pyrrolo[2,1-f][1,2,4]triazin-7-yl)nicotinamide] | 0.076 µM
21 | Cc1cc(F)c(-c2cc(C(F)(F)F)c3c(N)ncnn23)cc1C(=O)N[C@@H]1CN(C(=O)c2cc(F)c(F)cc2F)C[C@@H]1F [Example 815, 5-[4-amino-5-(trifluoromethyl)pyrrolo[2,1-f][1,2,4]triazin-7-yl]-4-fluoro-N-[(3R,4S)-4-fluoro-1-(2,4,5-trifluorobenzoyl)pyrrolidin-3-yl]-2-methylbenzamide] | 0.011 µM
22 | COc1ncc(-c2cc(C(F)(F)F)c3c(N)ncnn23)cc1C(=O)N[C@H]1CN(CC(O)C(F)(F)F)CC1F (single isomer, unassigned) [Example 44-3] | 0.296 µM
23 | COc1ncc(-c2cc(CN3CCC(F)(F)CC3)c3c(N)ncnn23)cc1C(=O)NC1CN(C(=O)OC(C)C(F)(F)F)C[C@@H]1F (stereo partly drawn) [Example 1504, 1,1,1-trifluoropropan-2-yl (3R,4S)-3-(5-{4-amino-5-[(4,4-difluoropiperidin-1-yl)methyl]pyrrolo[2,1-f][1,2,4]triazin-7-yl}-2-methoxypyridine-3-amido)-4-fluoropyrrolidine-1-carboxylate] | 0.01 µM
24 | Nc1ncnn2c(-c3cccc(C(=O)N[C@@H]4CN(C(=O)C5CCC(F)(F)C5)C[C@@H]4F)c3)cc(CN3CC(F)(F)C3)c12 (stereo partly drawn) [Example 1178, 3-{4-amino-5-[(3,3-difluoroazetidin-1-yl)methyl]pyrrolo[2,1-f][1,2,4]triazin-7-yl}-N-[(3R,4S)-1-(3,3-difluorocyclopentanecarbonyl)-4-fluoropyrrolidin-3-yl]benzamide] | 0.0018 µM
25 | COc1ncc(-c2cc(C(F)(F)F)c3c(N)ncnn23)cc1C(=O)Nc1nc(C(=O)NC2CCCC2)co1 [Example 1303, 5-[4-amino-5-(trifluoromethyl)pyrrolo-[2,1-f][1,2,4]triazin-7-yl]-N-[4-(cyclopentylcarbamoyl)-1,3-oxazol-2-yl]-2-methoxypyridine-3-carboxamide] | 0.291 µM
